One assay deals with RS4;11 cells. Description: cells. The conditions noted are these: Homo sapiens.
In another assay the test system is Molt-4 cells. Description: cells. The following applies: Homo sapiens.
Setting [1] is: RS4-11, 48 h, read-out: Cellular activity (IC50, nM) RS4, 11.
The mark [2] stands for this setting: MOLT-4, read-out: Cellular activity (IC50, nM) Molt-4.
Setting [3] is: RS4-11, 48 h, read-out: Cellular activity (IC50, nM) RS4;11.
Where [4] appears, read: RS4-11, read-out: Celluclar activity (IC50, nM) RS 4, 11.
Where [5] appears, read: MOLT-4, read-out: Celluclar activity (IC50, nM) Molt-4.
The mark [6] stands for this setting: RS4-11, read-out: Cellular activity (IC50, nM) RS4, 11.

The structures appear in SMILES notation. Like-named read-outs stand apart in the source and are kept apart here.

For orientation: IC50 means the midpoint of a concentration-inhibition curve. Consider `O=C(NS(=O)(=O)c1ccc(OCC2CCC(O)CC2)c([N+](=O)[O-])c1)c1ccc(C2=CCC(N3CCCC3c3cccc(Cl)c3C3CC3)CC2)cc1Oc1cnc2[nH]ccc2c1` (centres unmarked) [Example G116, 3-((1H-pyrrolo[2,3-b]pyridin-5-yl)oxy)-4′-(2-(3-chloro-2-cyclopropylphenyl)pyrrolidin-1-yl)-N-((4-((4-hydroxycyclohexyl)methoxy)-3-nitrophenyl)sulfonyl)-2′,3′,4′,5′-tetrahydro-[1,1′-biphenyl]-4-carboxamide], for which the IC50 is 20 nM in the assay with RS4;11 cells (setting [1]) and above 10000 nM with Molt-4 cells (setting [2]).

For the molecule `CCc1ccccc1[C@@H]1CCCN1C1CC2(CCN(c3ccc(C(=O)NS(=O)(=O)c4ccc(NC[C@H]5CC[C@](C)(O)CC5)c([N+](=O)[O-])c4)c(Oc4cnc5[nH]ccc5c4)c3)CC2)C1` [Example F26, 2-((1H-pyrrolo[2,3-b]pyridin-5-yl)oxy)-4-(2-((S)-2-(2-ethylphenyl)pyrrolidin-1-yl)-7-azaspiro[3.5]nonan-7-yl)-N-((4-((((1r,4r)-4-hydroxy-4-methylcyclohexyl)methyl)amino)-3-nitrophenyl)sulfonyl)benzamide], the IC50 in the assay on RS4;11 cells (setting [3]) was 1.9 nM; with RS4;11 cells (setting [4]) it was 1.9 nM; in the assay with Molt-4 cells (setting [5]), above 10000 nM; in the assay on Molt-4 cells (setting [2]), above 10000 nM.

`O=C(NS(=O)(=O)c1ccc(OCC2(F)CCOCC2)c([N+](=O)[O-])c1)c1ccc(C2=CCC(N3CCCC3c3ccccc3C3CC3)CC2)cc1Oc1cnc2[nH]ccc2c1` (centres unmarked) [Example G1C, 3-((1H-pyrrolo[2,3-b]pyridin-5-yl)oxy)-4′-(2-(2-cyclopropylphenyl)pyrrolidin-1-yl)-N-((4-((4-fluorotetrahydro-2H-pyran-4-yl)methoxy)-3-nitrophenyl)sulfonyl)-2′,3′,4′,5′-tetrahydro-[1,1′-biphenyl]-4-carboxamide]: the results for the IC50 in the assay on RS4;11 cells (setting [1]) and in the assay on Molt-4 cells (setting [2]) were 37 nM and 5160 nM, respectively.

Take `O=C(NS(=O)(=O)c1ccc(NCC2CCOCC2)c([N+](=O)[O-])c1)c1ccc(N2CCC(N3CCCC3c3ccccc3Cl)CC2)cc1Oc1cnc2[nH]ccc2c1` (centres unmarked) [Example E3, 2-((1H-pyrrolo[2,3-b]pyridin-5-yl)oxy)-4-(4-(2-(2-chlorophenyl)pyrrolidin-1-yl)piperidin-1-yl)-N-((3-nitro-4-(((tetrahydro-2H-pyran-4-yl)methyl)amino)phenyl)sulfonyl)benzamide]: the IC50 is 931 nM in the assay on RS4;11 cells (setting [1]) and above 10000 nM in the assay on Molt-4 cells (setting [2]).

For the molecule `CN(C)CCOC1CC(c2ccccc2C2CC2)N(C2CC3(CCN(c4ccc(C(=O)NS(=O)(=O)c5ccc(NCC6CCOCC6)c([N+](=O)[O-])c5)c(Oc5cnc6[nH]ccc6c5)c4)CC3)C2)C1` (centres unmarked) [Example F86, 2-((1H-pyrrolo[2,3-b]pyridin-5-yl)oxy)-4-(2-(2-(2-cyclopropylphenyl)-4-(2-(dimethylamino)ethoxy)pyrrolidin-1-yl)-7-azaspiro[3.5]nonan-7-yl)-N-((3-nitro-4-(((tetrahydro-2H-pyran-4-yl)methyl)amino)phenyl)sulfonyl)benzamide], the figures for the IC50 with RS4;11 cells (setting [3]) and in the assay on Molt-4 cells (setting [2]) were 32 nM and above 10000 nM, respectively.

Turning to `CN1CCN(C2CC3(CCN(c4ccc(C(=O)NS(=O)(=O)c5ccc(NCC6CCOCC6)c([N+](=O)[O-])c5)c(Oc5cnc6[nH]ccc6c5)c4)CC3)C2)C(c2ccccc2C2CC2)C1` (centres unmarked) [Example F90, 2-((1H-pyrrolo[2,3-b]pyridin-5-yl)oxy)-4-(2-(2-(2-cyclopropylphenyl)-4-methylpiperazin-1-yl)-7-azaspiro[3.5]nonan-7-yl)-N-((3-nitro-4-(((tetrahydro-2H-pyran-4-yl)methyl)amino)phenyl)sulfonyl)benzamide], the IC50 in the assay with RS4;11 cells (setting [3]) is 3.6 nM; in the assay on RS4;11 cells (setting [4]), 3.6 nM; in the assay with RS4;11 cells (setting [6]) it was 3.6 nM; in the assay on Molt-4 cells (setting [5]) it was above 10000 nM; in the assay with Molt-4 cells (setting [2]), above 10000 nM.

Consider `CC(C)(N)C(=O)N1CCC(c2ccccc2[C@H]2CCCN2c2ccc(-c3ccc(C(=O)NS(=O)(=O)c4ccc(NC[C@H]5CC[C@](C)(O)CC5)c([N+](=O)[O-])c4)c(Oc4cnc5[nH]ccc5c4)c3)cc2)CC1` [Example G127, 3-((1H-pyrrolo[2,3-b]pyridin-5-yl)oxy)-4′-((R)-2-(2-(1-(2-amino-2-methylpropanoyl)piperidin-4-yl)phenyl)pyrrolidin-1-yl)-N-((4-((((1r,4r)-4-hydroxy-4-methylcyclohexyl)methyl)amino)-3-nitrophenyl)sulfonyl)-[1,1′-biphenyl]-4-carboxamide], for which the IC50 with RS4;11 cells (setting [3]) is 60.3 nM; with Molt-4 cells (setting [2]), above 10000 nM.

For `CC(C)c1ccccc1[C@@H]1CCCN1c1ccc(-c2ccc(C(=O)NS(=O)(=O)c3ccc(NCC4(F)CCOCC4)c([N+](=O)[O-])c3)c(Oc3cnc4[nH]ccc4c3)c2)cc1` [Example G85-S, (S)-3-((1H-pyrrolo[2,3-b]pyridin-5-yl)oxy)-N-((4-(((4-fluorotetrahydro-2H-pyran-4-yl)methyl)amino)-3-nitrophenyl)sulfonyl)-4′-(2-(2-isopropylphenyl)pyrrolidin-1-yl)-[1,1′-biphenyl]-4-carboxamide], the IC50 with RS4;11 cells (setting [1]) came to 103 nM; in the assay on Molt-4 cells (setting [2]), 4080 nM.

For `O=C(NS(=O)(=O)c1ccc(NCC2CCOCC2)c([N+](=O)[O-])c1)c1ccc(-c2ccc(N3CCC[C@@H]3c3ccccc3C3CCS(=O)(=O)CC3)cc2)cc1Oc1cnc2[nH]ccc2c1` [Example A123, (R)-3-((1H-pyrrolo[2,3-b]pyridin-5-yl)oxy)-4′-(2-(2-(1,1-dioxidotetrahydro-2H-thiopyran-4-yl)phenyl)pyrrolidin-1-yl)-N-((3-nitro-4-(((tetrahydro-2H-pyran-4-yl)methyl)amino)phenyl)sulfonyl)-[1,1′-biphenyl]-4-carboxamide], the IC50 with RS4;11 cells (setting [3]) amounted to 38.5 nM; with Molt-4 cells (setting [2]) it was 3910 nM.

Take `CC1(C)CC(CNc2ccc(S(=O)(=O)NC(=O)c3ccc(N4CCC5(CC4)CC(N4CCC[C@H]4c4ccccc4C4CC4)C5)cc3Oc3cnc4[nH]ccc4c3)cc2[N+](=O)[O-])CCO1` (stereo partly drawn) [Example F127, 2-((1H-pyrrolo[2,3-b]pyridin-5-yl)oxy)-4-(2-((S)-2-(2-cyclopropylphenyl)pyrrolidin-1-yl)-7-azaspiro[3.5]nonan-7-yl)-N-((4-(((2,2-dimethyltetrahydro-2H-pyran-4-yl)methyl)amino)-3-nitrophenyl)sulfonyl)benzamide]: the results for the IC50 with RS4;11 cells (setting [3]) and in the assay with Molt-4 cells (setting [2]) were 2.1 nM and 1790 nM, respectively.

As to `CN(CC1CCOCC1)C(=O)Nc1ccc(S(=O)(=O)NC(=O)c2ccc(N3CCC4(CC3)CC(N3CCC[C@H]3c3ccccc3C3CC3)C4)cc2Oc2cnc3[nH]ccc3c2)cc1[N+](=O)[O-]` [Example F128, (S)-2-((1H-pyrrolo[2,3-b]pyridin-5-yl)oxy)-4-(2-(2-(2-cyclopropylphenyl)pyrrolidin-1-yl)-7-azaspiro[3.5]nonan-7-yl)-N-((4-(3-methyl-3-((tetrahydro-2H-pyran-4-yl)methyl)ureido)-3-nitrophenyl)sulfonyl)benzamide], the IC50 in the assay on RS4;11 cells (setting [3]) came out at 7.8 nM; in the assay on Molt-4 cells (setting [2]), 1810 nM.

As for `C[C@]1(O)CC[C@H](CNc2ccc(S(=O)(=O)NC(=O)c3ccc(C4=CCC5(CC4)CC(N4CCC[C@H]4c4ccccc4C4CC4)C5)cc3Oc3cnc4[nH]ccc4c3)cc2[N+](=O)[O-])CC1` (stereo partly drawn) [Example F125, 2-((1H-pyrrolo[2,3-b]pyridin-5-yl)oxy)-4-(2-((S)-2-(2-cyclopropylphenyl)pyrrolidin-1-yl)spiro[3.5]non-6-en-7-yl)-N-((4-((((1r,4r)-4-hydroxy-4-methylcyclohexyl)methyl)amino)-3-nitrophenyl)sulfonyl)benzamide], the IC50 is 30 nM in the assay with RS4;11 cells (setting [3]) and above 10000 nM with Molt-4 cells (setting [2]).

`CN1CC=C(c2ccc(Cl)cc2C2CCCN2c2ccc(-c3ccc(C(=O)NS(=O)(=O)c4ccc(NCC5CCOCC5)c([N+](=O)[O-])c4)c(Oc4cnc5[nH]ccc5c4)c3)cc2)CC1` (centres unmarked) [Example A140, 3-((1H-pyrrolo[2,3-b]pyridin-5-yl)oxy)-4′-(2-(5-chloro-2-(1-methyl-1,2,3,6-tetrahydropyridin-4-yl)phenyl)pyrrolidin-1-yl)-N-((3-nitro-4-(((tetrahydro-2H-pyran-4-yl)methyl)amino)phenyl)sulfonyl)-[1,1′-biphenyl]-4-carboxamide]: the IC50 was 24 nM in the assay on RS4;11 cells (setting [3]) and above 10000 nM with Molt-4 cells (setting [2]).

On to `COCC1CCC(CNc2ccc(S(=O)(=O)NC(=O)c3ccc(C4=CCC(N5CCCC5c5ccccc5C5CC5)CC4)cc3Oc3cnc4[nH]ccc4c3)cc2[N+](=O)[O-])CC1` (centres unmarked) [Example G86, 3-((1H-pyrrolo[2,3-b]pyridin-5-yl)oxy)-4′-(2-(2-cyclopropylphenyl)pyrrolidin-1-yl)-N-((4-(((4-(methoxymethyl)cyclohexyl)methyl)amino)-3-nitrophenyl)sulfonyl)-2′,3′,4′,5′-tetrahydro-[1,1′-biphenyl]-4-carboxamide], for which the values for the IC50 in the assay on RS4;11 cells (setting [1]) and in the assay on Molt-4 cells (setting [2]) were 254 nM and 9760 nM, respectively.

In the case of `O=C(NS(=O)(=O)c1ccc(NCC2CCOCC2)c([N+](=O)[O-])c1)c1ccc(N2CCC3(CC2)CC(N2CCCC2c2cccc(C4CC4)c2)C3)cc1Oc1cnc2[nH]ccc2c1` (centres unmarked) [Example F53, 2-((1H-pyrrolo[2,3-b]pyridin-5-yl)oxy)-4-(2-(2-(3-cyclopropylphenyl)pyrrolidin-1-yl)-7-azaspiro[3.5]nonan-7-yl)-N-((3-nitro-4-(((tetrahydro-2H-pyran-4-yl)methyl)amino)phenyl)sulfonyl)benzamide], the results for the IC50 with RS4;11 cells (setting [3]), in the assay with RS4;11 cells (setting [6]) and in the assay with Molt-4 cells (setting [2]) were 100 nM, 100 nM and above 10000 nM, respectively.

For the molecule `O=C(NS(=O)(=O)c1ccc(NC[C@H]2COCCO2)c([N+](=O)[O-])c1)c1ccc(N2CC3(CC(N4CCC[C@H]4c4ccccc4C4CC4)C3)C2)cc1Oc1cnc2[nH]ccc2c1` [Example F107, N-((4-((((S)-1,4-dioxan-2-yl)methyl)amino)-3-nitrophenyl)sulfonyl)-2-((1H-pyrrolo[2,3-b]pyridin-5-yl)oxy)-4-(6-((S)-2-(2-cyclopropylphenyl)pyrrolidin-1-yl)-2-azaspiro[3.3]heptan-2-yl)benzamide], the results for the IC50 in the assay on RS4;11 cells (setting [3]) and with Molt-4 cells (setting [2]) were 0.9 nM and 1020 nM, respectively.

(Values after US11420968B2 (priority 2018, dated 2022).)
